Test results reported in PubChem BioAssay AID1345083 (National Center for Advancing Translational Sciences (NCATS), 2018).
About 6,200 (6.6%) of roughly 94,000 compounds were called active. This list was built around the results that the source calls inconclusive (neither active nor inactive); the mix of calls is not that of the screen. The call rests on the fitted dose curve; in most records, active means well fitted inhibition curve with a large enough effect; inconclusive means small, poorly fitted or top-dose-only effect; inactive means flat fitted curve, though single readings scatter. Potencies of inconclusive entries are doubtful fits and often do not repeat.

Assay: Cytotoxic Profiling in HEK 293 Cell Line of Diverse Libraries Using Quantitative High-Throughput Screening; further: nearly all actives have a fitted effect of over 60% in size
Conditions: HEK 293 viability, ATP luminescence (CellTiter-Glo), 48-72 h; activity change, negative = cytotoxicity: at 115 µM (top of the series) unless noted; series mostly up to 115 µM
How it was run: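 HEK 293 seeded at 250 cells/well receive compound via pintool. After 48 or 72 hr at 37 degree Celsius, 5% CO2 and 95% humidity, CellTiter-Glo is dispensed and luminescence read following 10 min at room temperature.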
On the % scale 0 is the no-effect control and ±100 the full control effect; potency means the concentration at half of the fitted maximal effect; tags describe the fitted curve by direction and shape.

Structure (SMILES)	activity change, negative = cytotoxicity	Potency	outcome
COc1cc(=O)n2c(c1C(=O)Nc1cc(C)ccc1C)CCCC2	inactive: 5.72%		
CCN1CC(c2ccccc2)CC2(CCN(C(=O)c3cc[nH]c3C)CC2)C1 (stereo not given)		inconclusive: 17.8 µM [inhibitor, full curve]	
O=[S+]1([O-])NC2(CCN(CC3CCCCC3)CC2)COc2ccccc21	inactive: -0.354%		
Cc1noc(C)c1Cc1c(C(=O)NC2CCc3n[nH]c(=O)n3CC2)noc1C (stereo not given)		inconclusive: 89.1 µM [inhibitor, single point]	
O=C(NCCc1ccccc1F)c1nc2sccn2c1-c1cccnc1		inconclusive: 89.1 µM [inhibitor, single point]	
COc1ccccc1N1CCN(C(=O)C2N(C(C)C)C(=O)C23CCCCC3)CC1 (stereo not given)		inconclusive: 89.1 µM [inhibitor, single point]	
Cc1cc(C(=O)N2CC[C@H](NS(=O)(=O)c3cn(C)cn3)C[C@H]2C(=O)N[C@@H](Cc2cccs2)C(N)=O)n(C)n1			inactive
CCOc1nccn2c(-c3ccc(CN4CCNC(=O)C4)cc3)cnc12	inactive: -2.29% [at 172 µM]		
Cc1cccc(CC(=O)N2C[C@@H](CO)[C@H](c3ccncc3)C2)c1	inactive: -6.32%		
COc1ncccc1-c1nccc2c(=O)cc(N(C)C)oc12	inactive: 0.156% [at 172 µM]		
O=C(NCc1ccc(Cl)cc1)c1ccn2cncc2c1		inconclusive: 112 µM [inhibitor, partial curve]	
O=C(Nc1ccc([C@@H](O)[C@H]2COCC(=O)N2Cc2ccc(C(F)(F)F)cc2)cc1)C1CCCC1		inconclusive: 56.2 µM [inhibitor, partial curve, poor fit]	
Cn1ccnc1CN1CCNc2cc(Nc3ccccc3)ncc2C1		inconclusive: 20 µM [inhibitor, partial curve, poor fit]	
CC(C)Oc1cccc(-c2n[nH]c3c2CC(=O)N(c2ccccc2)C3)c1		inconclusive: 56.2 µM [inhibitor, partial curve, poor fit]	
Cc1noc(C)c1CC(=O)N1CCC(OCCOc2ccc(F)cc2)CC1		inconclusive: 89.1 µM [inhibitor, single point]	
CCC(=O)N1CCCC(n2c(C)cnc2-c2ccccc2)C1 (stereo not given)		inconclusive: 39.8 µM [inhibitor, full curve, poor fit]	
CC(C)C(=O)NC1CCN(c2ccc3nnc(-c4ccccc4)n3n2)C1 (stereo not given)	inactive: -19.7%		
O=C(NCCc1ccc(Cl)cc1)c1ccc2nc(-c3cccnc3Cl)oc2c1		inconclusive: 126 µM [inhibitor, single point]	
c1ccc(COCCCc2nc(C3CCOC3)n[nH]2)cc1 (stereo not given)	inactive: 3.54%		
c1ccc(-c2nnc3ccc(N4CCc5ccccc5C4)nn23)nc1		active: 70.8 µM	
